In PubChem BioAssay AID1745846 (National Center for Advancing Translational Sciences (NCATS), 2022):
The whole screen tested about 1,400 compounds, of which about 30 (2%) were called active. This list was built around the results that the source calls inconclusive (neither active nor inactive); the mix of calls is not that of the screen. Calls come from the whole dose curve; as a rule, active = well fitted inhibition curve with a large enough effect; inconclusive = small, poorly fitted or top-dose-only effect; inactive = flat fitted curve, though single readings scatter. Potencies of inconclusive entries are doubtful fits and often do not repeat.
Potency is the fitted concentration of half-maximal effect; tags give direction and shape of the fitted curve.

Test: Firefly Luciferase Counterscreen for Inhibitors of ATXN expression
Settings: luminescence
Source text: University of Utah School of Medicine, Salt Lake City, Utah
Spinocerebellar ataxia type 2 (SCA2) is a multisystem neurodegenerative disease caused by a dominantly acting mutation leading to expansion of a polyQ domain in the ataxin-2 protein (ATXN2). SCA2 patients develop progressive ataxia and later lose function in other neuronal systems. Prominent parkinsonian signs develop in some patients. Like many neurodegenerative disorders, no symptomatic or disease-modifying treatments are known.
The primary objective of the proposed research is to identify compounds inhibiting ATXN2 expression and to test them for efficacy in SCA2 mouse models. We have developed a cell-based assay paired with an in vivo mouse model using identical luciferase expression constructs. This approach takes advantage of an ATXN2-luciferase transgene, with the luciferase gene flanked by the upstream and downstream portions of the ATXN2 gene. Here we describe a 5-7 dose quantitative high thoroughput screen (qHTS) for compounds lowering ATXN2 expression. We screened the NIH Molecular Libraries Small Molecule Repository (MLSMR) and NCGC's mechanistically annotated (MIPE) and drug repurposing (NPC) collections of compounds for lowering expression of an ATXN2-luciferase reporter in HEK-293 cells. The assay is a multiplexed cell viability assay to ensure target reduction in the absence of cytotoxicity. Secondary qHTS assays included a CMV-luciferase reporter expressed in HEK-293 cells as well as a biochemical assay using recombinant luciferase to detect inhibitors of the reporter enzyme. Compounds that inhibit ATXN2 expression but is not cytotoxic were selected for confirmatory and secondary screens.
PROTOCOL TABLE (as described by Inglese J, Shamu CE and Guy RK. 2007)
SEQUENCE No. (e.g., 1, 2, 3, etc.); […] (e.g., Cells, Incubation, Reagent, etc.); VALUE; DESCRIPTION.
2; Compounds; 23 nL; Kalypsis pintool (Wako USA) equipped with a 1536-well pin head.
3; Enzyme; 1 uL; recombinant firefly luciferase (prepared in 50 mM Tris HCl pH7.5, 10 mM MgCl2, 0.05% BSA, 0.01% Tween20) at final concentration of 10 nM. Wells containing buffer only were used as control (set as 100% inhibition when normalizing data).
4; Incubation; 10 min; room temperature.
5; Detection; Luminescence; Viewlux plate reader (PerkinElmer).
NOTES (numbers refer to Sequence numbers above)
1. Luciferase substrate is added to 1536 well, Greiner white assay plate. Evaporation was prevented by covering assay plates with metal lids containing holes to allow gas diffusion.
2. Compounds were added in a dose response manner with the final concentrations of 57, 11.4, 2.28, 0.46, 0.091, 0.018, 0.0037 uM. Vehicle-only plates, with DMSO being pin-transferred to columns 5-48, were inserted uniformly at the beginning and the end of each library to monitor and record any shifts in assay performance.
3. Recombinant firefly luciferase (10 nM final concentration) is added to the assay plate.
5. End-point luminescence is then measured on the Viewlux (PerkinElmer) imager equipped with a clear emission filter using a 2 sec exposure.
Inglese J, Shamu CE and Guy RK, Reporting data from high throughput screening of small molecule libraries, Nature Chemical Biology, 2007, 3(8): 438-441. doi.org/10.1038/nchembio0807-438.
With `O=C(CSC1c2ccccc2-c2ccccc21)N/N=C/c1ccccc1O` the Potency was inconclusive: 28.2 µM [inhibitor, partial curve, poor fit]. In the case of `CN1CN(c2ccccc2)C2(CCN(CCCSc3ccccc3NC(=O)/C=C/c3ccccc3)CC2)C1=O`, the Potency is reported as inconclusive: 15.8 µM [inhibitor, partial curve]. For `Oc1c(Cl)cccc1Cc1cc(Cl)cc(Cl)c1O`, the Potency was inconclusive: 25.1 µM [inhibitor, single point]. With `COc1cccc2c1C(=O)c1c(O)c3c(c(O)c1C2=O)CC(O)(C(C)=NO)CC3OC1CC(N)C(O)C(C)O1` (configuration not stated) the Potency was inconclusive: 25.1 µM [inhibitor, single point]. For `CN1C(=O)NC(=O)/C(=C\C=C\c2ccccc2[N+](=O)[O-])C1=O`, the Potency was inconclusive: 15.8 µM [inhibitor, partial curve]. With `O=C(NN=Cc1ccc(N(CCCl)CCCl)cc1)c1cc(=O)[nH]c(=O)[nH]1` the Potency was inconclusive: 3.98 µM [inhibitor, partial curve]. With `Cc1ccc(N2C(=O)NC(=O)/C(=C\c3cc(C)n(-c4sc5c(c4C#N)CCCC5)c3C)C2=O)cc1` the Potency was inconclusive: 17.8 µM [inhibitor, single point]. In the case of `Cc1ccc(/C=C2\C(=O)NC(=S)N(c3ccccc3F)C2=O)s1`, the Potency is reported as inconclusive: 15.8 µM [inhibitor, partial curve]. In the case of `Cc1nc2ccccc2c(=O)n1/N=C/c1cc(Br)cc(Br)c1O`, the Potency is reported as inconclusive: 25.1 µM [inhibitor, partial curve, poor fit]. For `COc1cccc2c1cc([N+](=O)[O-])c1c(C(=O)O)cc3c(c12)OCO3`, the Potency was inconclusive: 25.1 µM [inhibitor, single point]. For `N#Cc1ncc(N=Cc2ccc(N(CCCl)CCCl)cc2)s1`, the Potency was inconclusive: 25.1 µM [inhibitor, partial curve, poor fit]. For `Cc1nc2cc(-c3ccccc3)nn2c(C)c1CCC(=O)N1CCC2(CC1)OCCO2`, the Potency was inconclusive: 15.8 µM [inhibitor, partial curve].
